The labels stand for the following.
B1: CPEB3 Ribozyme (parent)
chain: UAACAGGGGGCCACAGCAGAAGCGUUCACGUCGCAGCCCCUGUCAGAUUCUGGUGAAUCUGCGAAUUCUGCUGUAUAUCUC

Read counts are not given, so values of variants with three or more changes are uncertain.

Self-cleavage data for 83 variants are collected here from the RNAGym collection of RNA variant scans (doi:10.1093/nar/gkz1192).

The data set covers variants of B1. Briefly: self-cleavage, relative activity (ratio to wild type); higher = more cleavage; in vitro, sequencing. The procedure, abridged:
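After error-prone PCR and barcoding, CPEB3 ribozyme mutant libraries were transcribed with T7 RNA polymerase at 37°C for 5 hours, then given 15 min with DNase I before an EDTA stop, and they cleaved during both steps. Reverse transcription with template switching preceded Illumina sequencing. Relative activity divides a variant's cleaved/total read fraction by the unmutated ribozyme's. At least 5 reads were required per variant, and three batches were averaged.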
Consider A13G G24A U43C U60A U67A, for which the self-cleavage is 0.05. With A13G A18G A20U U49A, the self-cleavage was 0.26. In the case of C12U U25C C32A A57G U66C U72A it was 0.04; in that of A13G C14U G30A U43A C68U, 0.08. Then A13C A15U A56U, with 0.38; and A13G U25A C62U U67G U78C U80C, with 0.04.

Regarding A13G A28G A47G A56G U69A U72C, the self-cleavage is 0.15. In the case of A13G G16U U41C U80A it was 0.28; in that of A13C U26C A35U A64U U66C, 0.11; in that of A13G U26C G42C A64G U66C, 0.23. Regarding A13C A20G A21G A28U U43C A57G A64G, the self-cleavage was 0. In the case of A13G C59A U72G it was 0.05; in that of A13G A18G A56U U58C, 0.12; in that of A13G A28U A56U A64G U67C U76C, 0.08. Then A13G U31C G73A, with 0.91; and A13G G33A A35G C40U, with 0.1; and A13G C32U C38U, with 0.17. As to C12U U51G A64G, the self-cleavage was 1.24. In the case of A13G A45U U67C A77G C81A it was 0.2. In the case of A13G A64G U72C it was 0.53; in that of A13G A57G U66C, 0.29.

With A13G A20G C32U C37U G73A, the self-cleavage was found to be 0.6. C12U G16A U41C A47G: the self-cleavage was 0.76. Then A13G A18U A20G C29U A45U C68A U78C, with 0; and A13G A15U U41A U54C U60A U67C U74C, with 0.06. In the case of A13G A18U U54A A56U it was 0.14; in that of A13G A28U A35C A47U U80C, 0.18; in that of C12U U26C U76A, 1.02. With A13G A15U U80G, the self-cleavage was 0.8.

For A13G G24A A56G U66C G73A, the self-cleavage stood at 0.18. Then A13G A20G A35G A45G, with 0.5.

With A13G A64U A65G, the self-cleavage amounted to 0.15. In the case of A13G A15U U26C U41C A77G U80C it was 0.19. Consider C12U U51C A57G U72G A77C, for which the self-cleavage was 1.14. Then C12U U49A A64G, with 0.5. Then A13G A20U A65G, with 0.57; and A13G U25C C27G A65U U72A U80C, with 0.22. In the case of A13G A15U A21G G63U it was 0.42. For A13G U31C U66C, the self-cleavage was determined as 0.43. Turning to A13G U31A A47G U67A U76C, the self-cleavage was 0.15. Then A13G A57G U58C A75U, with 0.17.

As to A13G A20G A28G A45U U51G G61U C79U, the self-cleavage worked out at 0. Then C12U G24U U26C G33A, with 0.12. Then A13G A18U U26A U54A A56U, with 0.21; and A13G A21G U31A U43C A56G U60C A77G, with 0.05; and C12U U25C U31A U48C, with 0.18. Then A13G A35U U41C, with 0.12; and A13G A45C A64G U72C U78A, with 0.16.

Consider A13G G63A U69C A77G C79U, for which the self-cleavage came out at 0.22.

Turning to A13C A77G U80C, the self-cleavage stood at 1.07. Take A13G A18U G55U U58A U67A: the self-cleavage turned out to be 0.18. In the case of A13G A18G G33C U49A C81U it was 0.31; in that of A13G A15C G24A C32U A56G U69C, 0.04; in that of A13G A21U G22A U80C, 0.24.

As for A13C A35G A56U U60C, the self-cleavage stood at 0.27. Turning to A13G A15G U72C, the self-cleavage was 0.4. Then A13G A64G U67C, with 0.08; and A13G A15G U26C C32A, with 0.46; and A13G A18U A64G, with 0.23. Then A13G A35U U72C U80C, with 0.68; and A13G A56U U69C, with 0.13.

Regarding A13G G33C A35U U54C, the self-cleavage amounted to 0.09. Then A13C A15U C32A, with 0.26.

As to A13G U25C U41C U72C U78C, the self-cleavage stood at 0.74. In the case of A13C U26G A75G U78C it was 0.39.

Turning to A13G A57G U69A, the self-cleavage was 0.28. In the case of A13G A35U A47U U51C A56U U67C, the self-cleavage stood at 0.07. Consider A13C A21G U69G C71A A75U, for which the self-cleavage is 0.04. Consider A13G A21G C32A C50U U51G A65U, for which the self-cleavage stood at 0.03. In the case of A13G A35G A56G it was 0.68; in that of A13C U58C A65U U76C, 0.06. Take C12U G19U U51C G63A U80C: the self-cleavage was found to be 0.15.

On to A13C A18U U41C U72C, for which the self-cleavage turned out to be 0.19. Then A13G A15G U58A, with 0.15.

On to A13G A15U G33A A47G A64G U74C, for which the self-cleavage amounted to 0.12. As for A13C U25C U49A U60A U80G, the self-cleavage was 0.12.

Consider A13G A15G A45G U54C, for which the self-cleavage is 0.29. In the case of A13G U26A A45G U51C U69A it was 0.19; in that of A13G U26C U60C, 0.1; in that of A13G C29A A57U U72C, 0.26.

With A13G C27A A65G, the self-cleavage came out at 0.21. In the case of A13G G16C A77C, the self-cleavage amounted to 0.24.

Turning to C12U U25C U48A, the self-cleavage is 0.25.
